{"source": "PubChem BioAssay AID493208", "about": "(National Center for Advancing Translational Sciences (NCATS), 2011)", "note": "Screen size: about 44,000 compounds; about 340 (0.77%) were called active. Inconclusive results, whose numbers are uncertain, are shown with a selection of clear calls. The call rests on the fitted dose curve; in most records, active means well fitted inhibition curve with a large enough effect; inconclusive means small, poorly fitted or top-dose-only effect; inactive means flat fitted curve, though single readings scatter. Potencies of inconclusive entries are left out as doubtful fits. Potency means the concentration at half of the fitted maximal effect; tags describe the fitted curve by direction and shape."}
{"test": "Acumen qHTS Assay for Inhibitors of the mTORC1 Signaling Pathway in MEF (Tsc2-/-, p53-/-) Cells: Sytravon; further: nearly all actives have a fitted effect of over 50% in size", "conditions": "phospho-rpS6 immunofluorescence/PI, 24 h; series mostly up to 38.3 µM", "method_in_brief": "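Read-out: phospho-S6 Alexa-488 intensity over PI intensity per well, scored as % active cells using thresholds from rapamycin (7.5 nM) and DMSO controls. Tsc2-/-, p53-/- MEFs exposed to compound for 24 h; PI cell count recorded as viability.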"}
{"compound": "CC(C)Cn1c(/C=C/c2ccc(F)cc2)nc2ccccc21", "Potency": "inactive"}
{"compound": "Cc1cccc(CS(=O)(=O)c2ncc(Cl)c(C(=O)NCc3ccccc3)n2)c1", "Potency": "active: 18.5 µM"}
{"compound": "Fc1ccc(CNc2nc(-c3ccccc3)cc(C(F)(F)F)n2)cc1", "Potency": "inconclusive [falling, full curve, poor fit]"}
{"compound": "Cc1ccc(OCC(=O)Nc2ccc(C(=O)OCc3cc(=O)n4c(C)csc4n3)cc2)cc1", "Potency": "inactive"}
{"compound": "Cc1cccc(C(=O)Nc2ccccc2SCc2cc(=O)c3cccc(C)c3[nH]2)c1", "Potency": "inconclusive [falling, partial curve, poor fit]"}
{"compound": "Cc1ccc2nc3c(cc(C(=O)NC4CCCCC4)c(=N)n3C(C)C)c(=O)n2c1", "Potency": "inconclusive [falling, single point]"}
{"compound": "Cc1cccc(NC(=O)CCn2nc(-c3ccccc3)c3ccccc3c2=O)c1", "Potency": "inactive"}
{"compound": "COc1ccc(CNC(=O)CCCc2cn(C)c3ccccc23)c(OC)c1", "Potency": "inconclusive [falling, partial curve]"}
{"compound": "CCOc1ccc(-c2nc(SCC(=O)Nc3ccc4c(c3)OCCO4)c(-c3ccc(F)cc3)[nH]2)cc1", "Potency": "inconclusive [falling, partial curve, poor fit]"}
{"compound": "O=C(Cn1nc(Cc2cccnc2)c2ccccc2c1=O)Nc1cccc(C(F)(F)F)c1", "Potency": "inactive"}
{"compound": "COc1ccc(S(=O)(=O)N(C)Cc2nc(-c3cccc(C)c3)no2)cc1", "Potency": "inconclusive [falling, single point]"}
{"compound": "CCCc1cc(=O)n2[nH]c(-c3ccc(C)cc3)nc2n1", "Potency": "inactive"}
{"compound": "O=C(NCCCc1nc2ccccc2n1Cc1ccc(Cl)cc1)c1ccco1", "Potency": "inconclusive [falling, partial curve, poor fit]"}
{"compound": "CCOc1ccc(NC(=O)CSc2nnc(-c3ccc(C)cc3)c(-c3ccc(C)cc3)n2)cc1", "Potency": "inconclusive [falling, partial curve, poor fit]"}
{"compound": "Cc1c(C(=O)N(C)c2cccc(C(F)(F)F)c2)sc2nc3n(c(=O)c12)CCCCC3", "Potency": "inactive"}
{"compound": "CCOC(=O)c1ccccc1NC(=O)Cn1c(=O)n(Cc2ccccc2)c(=O)c2c(C)c(C)sc21", "Potency": "inconclusive [falling, partial curve, poor fit]"}
{"compound": "Cc1cccc(N2C(=O)CCSC23C(=O)N(Cc2ccc(F)cc2)c2ccccc23)c1", "note": "(stereo unspecified)", "Potency": "inactive"}
{"compound": "Cc1nnc(SCC(=O)NCc2ccccc2F)c2nn(-c3ccc(Cl)cc3)c(C)c12", "Potency": "inconclusive [falling, single point]"}
{"compound": "CC(=O)c1ccc(NC(=O)NCCc2c[nH]c3ccccc23)cc1", "Potency": "inconclusive [falling, single point]"}
{"compound": "COc1ccc(-n2nnnc2C2CCN(S(=O)(=O)c3cc(Cl)ccc3OC)CC2)cc1", "Potency": "inconclusive [falling, single point]"}
{"compound": "Cc1ccc(Nc2c(-c3ccco3)nc3ccc(C)cn23)cc1", "Potency": "inconclusive [falling, single point]"}
{"compound": "Cc1cccc(-n2nnc(-c3nc(-c4cccs4)no3)c2N)c1C", "Potency": "inactive"}
{"compound": "CCN1C(=O)c2ccccc2S(=O)c2ccc(C(=O)N3CCN(c4ccc(F)cc4)CC3)cc21", "note": "(stereo unspecified)", "Potency": "inactive"}
{"compound": "CCc1cc(=O)oc2cc(C)c3c(-c4ccc(F)cc4)coc3c12", "Potency": "inactive"}
{"compound": "CC1(C)CC(=O)c2cc(C(=O)Nc3ccc(Cl)cc3)c(=O)[nH]c2C1", "Potency": "inactive"}
{"compound": "Cc1ccc(CCNC(=O)c2cc3c(s2)-c2ccccc2OC3)cc1", "Potency": "inconclusive [falling, single point]"}
{"compound": "c1ccc(-c2cc(-c3ccccc3)c3c(n2)-c2ccccc2OC3)cc1", "Potency": "inactive"}
{"compound": "COc1ccccc1N1CCN(CCCNC(=O)c2cnn(-c3ccccc3Cl)c2C2CCN(C(=O)OC(C)(C)C)CC2)CC1", "Potency": "inconclusive [falling, single point]"}
{"compound": "CCOc1c(CC2C(=O)Nc3ccc(Br)cc32)cccc1OC", "note": "(stereo unspecified)", "Potency": "inactive"}
{"compound": "CCN(CC)S(=O)(=O)c1ccc2oc(C(=O)NCc3ccccc3OC)c(C)c2c1", "Potency": "inconclusive [falling, partial curve, poor fit]"}
{"compound": "CCOc1ccc(CNS(=O)(=O)c2ccc(-c3coc(C)n3)cc2)cc1OC", "Potency": "inactive"}
{"compound": "CCN(CC)CCCNC(=O)c1nn(-c2ccc(C)cc2)c(=O)c2c1c1ccccc1n2C", "Potency": "inconclusive [falling, single point]"}
{"compound": "COc1ccc(/C=C(\\C#N)c2nc3ccccc3n2C)c(OC)c1", "Potency": "inactive"}
{"compound": "COc1ccccc1CN1CCC(CNC(=O)c2cnn(-c3ccc(Cl)cc3)c2C2CCN(C(=O)OC(C)(C)C)CC2)CC1", "Potency": "inconclusive [falling, single point]"}
{"compound": "Cc1cccc(NC(=O)CSc2nc3ccc(NC(=O)COc4ccccc4F)cc3s2)c1", "Potency": "inconclusive [falling, partial curve]"}
{"compound": "COc1ccc(NC(=O)CSc2nc(-c3ccco3)cc(C(F)(F)F)n2)cc1Cl", "Potency": "inconclusive [falling, partial curve, poor fit]"}
{"compound": "CCCCS(=O)(=O)c1nc(-c2ccc(Br)cc2)cc(-c2ccccc2)c1C#N", "Potency": "active: 5.21 µM"}
{"compound": "COc1ccccc1CN1CCC(CNC(=O)c2cnn(-c3ccc(C)c(C)c3)c2C2CCN(C(=O)OC(C)(C)C)CC2)CC1", "Potency": "inconclusive [falling, single point]"}
{"compound": "CCCN(CCC)CCNC(=O)c1cc(-c2ccc(Br)s2)nc2ccccc12", "Potency": "inconclusive [falling, single point]"}
{"compound": "COc1ccc(S(=O)(=O)c2cn(Cc3ccccc3)c3ccc(OC)cc3c2=O)cc1", "Potency": "inconclusive [falling, partial curve, poor fit]"}
{"compound": "CN(C)c1ccc(C(CNS(=O)(=O)c2ccc(F)cc2)N2CCc3ccccc32)cc1", "note": "(stereo unspecified)", "Potency": "inconclusive [falling, partial curve]"}
{"compound": "Fc1ccc(Nc2nc(Nc3ccc(F)cc3)nc(N3CCOCC3)n2)cc1", "Potency": "active: 2.07 µM"}
{"compound": "Cc1cccc(Oc2coc3cc(OCC(=O)NC4CCCCC4)ccc3c2=O)c1", "Potency": "inconclusive [falling, single point]"}
{"compound": "Cc1cncn1CCc1nc2c3ccccc3nc(SCC(=O)Nc3ccccc3F)n2n1", "Potency": "inconclusive [falling, single point]"}
{"compound": "CCOc1ccccc1CNC(=O)C1CCCN(S(=O)(=O)c2ccc3c(ccn3C)c2)C1", "note": "(stereo unspecified)", "Potency": "inconclusive [falling, partial curve, poor fit]"}
{"compound": "COc1ccccc1NC(=O)CSc1nnc2c3ccccc3n(C(C)C)c2n1", "Potency": "active: 14.7 µM"}
{"compound": "NS(=O)(=O)c1ccc(CCNC(=O)c2nc(SCc3ccccc3F)ncc2Cl)cc1", "Potency": "inactive"}
{"compound": "CCOc1cccc(C(=O)Nc2ccc(S(=O)(=O)N(Cc3ccccc3)c3ccccc3)cc2)c1", "Potency": "inconclusive [falling, partial curve, poor fit]"}
{"compound": "Cc1ccc(CN2CCC(CNc3ncnc4onc(-c5ccc(F)cc5)c34)CC2)cc1", "Potency": "inconclusive [falling, single point]"}
{"compound": "CC(C)CS(=O)(=O)c1oc(-c2ccc(F)cc2)nc1S(=O)(=O)c1ccccc1", "Potency": "active: 0.736 µM"}
{"compound": "CCN(CC)c1cc(C)c2cc(NC(=O)c3cccc(F)c3)ccc2n1", "Potency": "inconclusive [falling, single point]"}
{"compound": "CCC(C)n1c(=N)c(C(=O)NCc2ccccc2)cc2c(=O)n3cc(C)ccc3nc21", "note": "(stereo unspecified)", "Potency": "inconclusive [falling, partial curve, poor fit]"}
{"compound": "COc1ccc(Cl)cc1NS(=O)(=O)c1cc(Br)cc2c1N(C(=O)C1CC1)CC2", "Potency": "inactive"}
{"compound": "COC(=O)c1c(C)oc2ccc(N(C(=O)c3ccncc3)S(=O)(=O)c3cc(C)c(C)cc3C)cc12", "Potency": "inconclusive [falling, single point]"}
{"compound": "Cc1ccc(Nc2cc(C)nc3nc(Cc4ccc(Cl)cc4)nn23)cc1", "Potency": "inconclusive [falling, single point]"}
{"compound": "Cc1ccc2nc(/C(C#N)=C/c3cccc(Br)c3)[nH]c2c1", "Potency": "active: 18.5 µM"}
{"compound": "CC1CCN(C(=O)c2c(NC(=O)c3ccccc3F)sc3c2CCC(C(C)(C)C)C3)CC1", "note": "(stereo unspecified)", "Potency": "inconclusive [falling, single point]"}
{"compound": "Cc1ccc(CN(Cc2ccco2)C(=O)COc2c(C)cc(C)cc2C)cc1", "Potency": "inconclusive [falling, single point]"}
{"compound": "CCCCC(CC)CNC(=O)CCCc1nnc2n(CCC)c(=O)c3sccc3n12", "note": "(stereo unspecified)", "Potency": "inactive"}
{"compound": "CCN1CCC(N(Cc2ccc3c(c2)OCO3)C(=O)Nc2cc(Cl)ccc2C(=O)OC)CC1", "Potency": "inconclusive [falling, single point]"}
{"compound": "Cc1cccc(N2CCN(C(=O)c3cn(C4CCCCC4)c(=O)c4c3c3ccccc3n4C)CC2)c1C", "Potency": "inactive"}
{"compound": "Cc1ccc(-c2nc3ccc(Cl)cn3c2Nc2ccc3c(c2)OCCO3)o1", "Potency": "inactive"}
{"compound": "CCOc1ccccc1NC(=O)Nc1nnc(N(C)Cc2ccccc2)s1", "Potency": "inactive"}
{"compound": "O=C(Cn1nc(-c2ccccc2)ccc1=O)NCc1ccc(F)cc1Cl", "Potency": "inconclusive [falling, partial curve, poor fit]"}
{"compound": "COc1ccc(OCC(=O)NCC2(N3CCN(C)CC3)CCCCC2)cc1", "Potency": "inconclusive [falling, single point]"}
{"compound": "CC(C)(C)OC(=O)N1CCC(c2c(C(=O)NC3CCN(Cc4ccccc4)CC3)cnn2-c2cccc(F)c2)CC1", "Potency": "inconclusive [falling, partial curve, poor fit]"}
